# In the supplement of paper PMC3334620:
# In all, about 33,000 sequences were measured (“E-score (-0.5 to 0.5)”: median about -0.041, highest 2% from about 0.37 on). The list shows a part of the results.
# Target: T1, Ecm22 (UniProt Q05958)
# T1 sequence: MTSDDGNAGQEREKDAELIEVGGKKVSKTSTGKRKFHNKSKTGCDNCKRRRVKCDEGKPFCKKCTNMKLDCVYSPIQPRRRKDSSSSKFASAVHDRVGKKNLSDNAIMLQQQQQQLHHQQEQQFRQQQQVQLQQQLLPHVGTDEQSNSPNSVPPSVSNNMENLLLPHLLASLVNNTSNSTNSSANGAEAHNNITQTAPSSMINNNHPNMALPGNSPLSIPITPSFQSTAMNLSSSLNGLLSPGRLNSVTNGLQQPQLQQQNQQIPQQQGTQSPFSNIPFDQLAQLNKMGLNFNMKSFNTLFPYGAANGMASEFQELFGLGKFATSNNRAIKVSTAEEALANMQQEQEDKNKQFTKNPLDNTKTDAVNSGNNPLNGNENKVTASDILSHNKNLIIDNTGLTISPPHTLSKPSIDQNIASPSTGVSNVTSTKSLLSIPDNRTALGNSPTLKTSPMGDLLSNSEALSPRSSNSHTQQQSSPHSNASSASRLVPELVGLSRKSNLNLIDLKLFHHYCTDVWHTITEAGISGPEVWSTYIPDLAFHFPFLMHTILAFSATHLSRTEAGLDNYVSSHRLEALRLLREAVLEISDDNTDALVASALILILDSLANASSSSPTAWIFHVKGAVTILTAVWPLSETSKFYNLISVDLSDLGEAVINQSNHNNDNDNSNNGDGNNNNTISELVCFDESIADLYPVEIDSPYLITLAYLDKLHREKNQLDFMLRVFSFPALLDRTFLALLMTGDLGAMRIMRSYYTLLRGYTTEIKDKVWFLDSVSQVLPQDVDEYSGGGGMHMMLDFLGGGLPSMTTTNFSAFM
# Experiment: PBM E-score (8-mer binding enrichment) (E-score (-0.5 to 0.5)); higher = stronger / more preferred TF binding; most listed sequences are background and not binding sites
# Settings: protein concentration: 200 nM; construct: GST-full length
# In short: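 Using PURExpress in vitro transcription/translation, GST-tagged yeast transcription factors were made in full-length or DNA-binding-domain form. These were applied at about 100-200 nM to double-stranded universal all-10-mer Agilent arrays, and bound protein was detected with fluorescent anti-GST. Scans were normalised with masliner before the Universal PBM Analysis Suite assigned E-scores to ungapped eight-base words pooled with their reverse complements.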
row,Sequence,PBM E-score
1,AAAGAGCG,0.135
2,GCCCCACA,0.0569
3,GCGGGTCC,-0.101
4,CGTCCTTA,-0.0472
5,GCTATTCC,-0.196
6,AATATAGG,0.104
7,TCGAACAA,0.109
8,CGTGGGAC,-0.0101
9,CTGGCTCA,-0.241
10,GAAGGAGC,-0.174
11,ACATCTGG,0.0224
12,CTCCACGA,-0.0272
13,CCAGGGCG,-0.202
14,ATGCCTTG,-0.0994
15,GAATTGAC,-0.0283
16,AATATTCA,-0.128
17,CAACAGTA,0.00245
18,AAGTCCCA,-0.119
19,CTGAGTGA,-0.0742
20,AGTAGATC,-0.0961
21,ACCGACAA,0.185
22,AAAAAGCG,0.0833
23,GGGGCTCA,-0.275
24,AAAGAAAT,0.0461
25,CCCTATCC,0.00567

row,Sequence,PBM E-score
1,CACTTACA,-0.0774
2,GCTGTCGA,0.0391
3,ATTCCCCG,-0.0989
4,CACTGCTG,-0.147
5,CATTTGAG,-0.115
6,AATTTCAT,-0.0174
7,CGGGACCA,-0.246
8,CTCGGGTA,0.272
9,ACAGGTCA,-0.0628
10,AAGACCTA,-0.139
11,ACAGCGCC,-0.0248
12,CGCCCGTC,-0.0401
13,AATACGGG,0.229
14,GTCGGAAA,0.248
15,GTGTACTA,0.207
16,ATTCTACG,0.25
17,GCGCCGCC,0.0635
18,GTAAGGTA,0.158
19,CAGTTCTC,-0.0842
20,GATGCGTA,0.166
21,AGAGGAAT,-0.0801
22,ATGCCCTG,-0.256
23,CAAGCTTG,-0.327
24,ACATAATC,0.194
25,CTATCTCA,-0.201

row,Sequence,PBM E-score
1,AGACTTTC,-0.337
2,AAACCCCC,-0.299
3,ATGAGCCG,-0.118
4,GAGTTCCC,-0.0826
5,AGAGTATA,0.0674
6,ACCTTCTG,-0.0813
7,TCTACAAA,-0.0993
8,ACTTGAGA,-0.0267
9,AATGTAGT,-0.114
10,AATCTTAT,-0.129
11,AACATGTA,0.0275
12,AGCAATAC,0.14
13,ACTTTCCG,-0.0559
14,ATCAATTA,0.139
15,ACCTTGGG,-0.21
16,AGGTGGCG,-0.138
17,TGTGTGAA,-0.0519
18,GAGCCGGC,-0.0401
19,TCATGAAA,0.0405
20,AGTTTATG,-0.158
21,CTAAGATA,-0.161
22,CACCTCTC,-0.332
23,ATGTGTCG,0.163
24,CAGTTCGG,0.0228
25,CGTGAGCC,-0.0587

row,Sequence,PBM E-score
1,GTTTTCGA,0.0691
2,GGGGTGGA,-0.285
3,AACGAAAG,0.399
4,CATTGGTC,-0.204
5,CACAAATC,-0.0624
6,AAAGTTCC,-0.191
7,ACTGGTCG,-0.00202
8,GACAGCAA,-0.203
9,CGGTAAAG,0.212
10,ACGATCTA,0.22
11,CTGGACCC,-0.301
12,GATCGCAC,0.156
13,ACTCAAGC,-0.33
14,CCCTGATA,-0.194
15,GAAGAGTC,0.02
16,CATTGCCC,-0.203
17,ATGTTAAA,-0.102
18,ACGGATGG,0.207
19,GCCTCATA,-0.0737
20,ACGAGGGC,0.374
21,AGTAATCC,-0.126
22,AGGGCGAG,-0.041
23,AAAGGCTC,-0.00176
24,ACCTCTTA,0.118
25,TCTCACAA,-0.0348

row,Sequence,PBM E-score
1,CTGATTCA,-0.297
2,CAGTTGGA,-0.0473
3,GACTATCA,-0.0739
4,CGTCGATA,-0.142
5,ATCAAAAC,-0.0829
6,ATCAGACC,-0.179
7,GGAAGTCC,-0.249
8,GATGTAGC,-0.0899
9,AATGAGCT,-0.037
10,ATCGCAAC,0.135
11,AATATGCA,-0.00647
12,TAGCATCA,-0.042
13,TCCCAAAA,-0.0844
14,GCATCAGC,-0.0738
15,AATCTAGC,-0.159
16,CTCCGTTC,0.297
17,CACAGACC,-0.0348
18,CAAGCAGG,-0.249
19,ACGGCCAA,0.0263
20,AGCAACTC,-0.0855
21,CGTCTCGC,0.185
22,AATCTGAA,-0.0785
23,CCTTACGA,0.383
24,ATCTCTAA,-0.0286
25,TCATAACA,-0.0191

row,Sequence,PBM E-score
1,ATTTATCC,0.179
2,AGAACCCG,-0.0503
3,TAAAATTA,0.00698
4,CACATAGA,-0.0996
5,GGCGTGGA,-0.314
6,ACAGATCA,-0.064
7,CACTCTCA,0.00852
8,GAAATTAA,0.0587
9,AAGGTCCT,-0.142
10,AGACAGGC,-0.116
11,ATACACGA,0.247
12,AATCGAGT,0.0277
13,CATACATA,0.0448
14,AATAACGA,0.175
15,CGATACCC,0.162
16,AGTGTTCG,0.164
17,CCACCACC,-0.103
18,AATTGAAT,-0.171
19,CGTGCACG,-0.00076
20,GTGACCCA,-0.234
21,CTACCACC,-0.17
22,ATCCGCGG,-0.0486
23,CGACCACC,0.0539
24,ATAATAGA,-0.0198
25,GATGTTTA,-0.0275

row,Sequence,PBM E-score
1,TACATCGA,0.12
2,ATCGGGTA,0.0498
3,CTTACGCC,0.0486
4,CCAGTTCG,0.0201
5,AGGAATCC,-0.221
6,CCTGCGCA,-0.168
7,GCCTAAAA,-0.211
8,ATCGAAAC,0.142
9,GTACCAAC,0.227
10,CAGGCCCA,-0.124
11,ACGCTGAC,0.0435
12,CCGTCCTA,-0.265
13,ACAGCTAT,-0.0388
14,ACGCGTTG,0.0889
15,GCTGTTAA,0.0716
16,CAGTGACG,-0.143
17,CGTGTGAG,-0.0263
18,CATCGACC,-0.15
19,GAATGATA,0.175
20,ACGGCACT,0.0515
21,AAAACTCA,-0.0877
22,AAGCAATT,-0.235
